# Measurements as given in the supplement of paper PMC8728848.
# The other results are listed elsewhere or left out.
# Tests used:
# Experiment in all cases: glycan array binding signal (z-score within array); higher = stronger binding
# Details in all cases: glycan notation: IUPAC condensed, linker removed
# [1] = target: Neu5Ac(a2-3)Gal(b1-4)GlcNAc(b1-3)Gal(b1-4)GlcNAc(b1-2)Man(a1-3)[Neu5Ac(a2-3)Gal(b1-4)GlcNAc(b1-3)Gal(b1-4)GlcNAc(b1-2)Man(a1-6)]Man(b1-4)GlcNAc(b1-4)GlcNAc
# Summary of the method: (§1)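 Glycan array data were curated from 3228 arrays in the Consortium for Functional Glycomics database and kept only where the protein sequence was available. Glycan names were converted to IUPAC-condensed notation, and columns mapping to the same glycan were averaged. The binding signal is a within-array Z-score, averaged across arrays of the same protein sequence at different concentrations or buffers and across linkers. Negative Z-scores can be read as non-binding.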
# [2] = target: Neu5Ac(a2-3)Gal(b1-4)GlcNAc(b1-3)Gal(b1-4)GlcNAc(b1-3)Gal(b1-4)GlcNAc
# Summary of the method: as §1
# [3] = target: Neu5Ac(a2-3)Gal(b1-4)GlcNAc(b1-3)Gal(b1-4)GlcNAc(b1-3)Gal(b1-4)GlcNAc(b1-2)Man(a1-3)[Neu5Ac(a2-3)Gal(b1-4)GlcNAc(b1-3)Gal(b1-4)GlcNAc(b1-3)Gal(b1-4)GlcNAc(b1-2)Man(a1-6)]GalNAc
# Summary of the method: as §1
# [4] = target: Neu5Ac(a2-3)Gal(b1-4)GlcNAc(b1-3)Gal(b1-4)GlcNAc(b1-3)GalNAc
# Summary of the method: as §1
# [5] = target: Neu5Ac(a2-3)Gal(b1-4)GlcNAc(b1-3)Gal(b1-4)GlcNAc(b1-3)[Neu5Ac(a2-3)Gal(b1-4)GlcNAc(b1-3)Gal(b1-4)GlcNAc(b1-6)]GalNAc
# Summary of the method: as §1
# [6] = target: Neu5Ac(a2-3)Gal(b1-4)GlcNAc(b1-3)Gal(b1-4)GlcNAc(b1-6)[Gal(b1-3)]GalNAc
# Summary of the method: as §1
# [7] = target: Neu5Ac(a2-3)Gal(b1-4)GlcNAc(b1-3)Gal(b1-4)[Fuc(a1-3)]GlcNAc
# Summary of the method: as §1
# [8] = target: Neu5Ac(a2-3)Gal(b1-4)GlcNAc(b1-3)GalNAc
# Summary of the method: as §1
# [9] = target: Neu5Ac(a2-3)Gal(b1-4)GlcNAc(b1-3)[Neu5Ac(a2-3)Gal(b1-4)GlcNAc(b1-6)]GalNAc
# Summary of the method: as §1
# [10] = target: Neu5Ac(a2-3)Gal(b1-4)GlcNAc(b1-6)GalNAc
# Summary of the method: as §1
# [11] = target: Neu5Ac(a2-3)Gal(b1-4)GlcNAc(b1-6)[Gal(b1-3)]GalNAc
# Summary of the method: as §1
# [12] = target: Neu5Ac(a2-3)Gal(b1-4)GlcNAc(b1-6)[Neu5Ac(a2-3)Gal(b1-3)]GalNAc
# Summary of the method: as §1
# [13] = target: Neu5Ac(a2-3)Gal(b1-4)GlcNAc6S
# Summary of the method: as §1
# [14] = target: Neu5Ac(a2-3)Gal(b1-4)[Fuc(a1-3)]GlcNAc
# Summary of the method: as §1
# [15] = target: Neu5Ac(a2-3)Gal(b1-4)[Fuc(a1-3)]GlcNAc(b1-2)Man
# Summary of the method: as §1
# [16] = target: Neu5Ac(a2-3)Gal(b1-4)[Fuc(a1-3)]GlcNAc(b1-3)Gal
# Summary of the method: as §1
# [17] = target: Neu5Ac(a2-3)Gal(b1-4)[Fuc(a1-3)]GlcNAc(b1-3)Gal(b1-4)GlcNAc
# Summary of the method: as §1
# [18] = target: Neu5Ac(a2-3)Gal(b1-4)[Fuc(a1-3)]GlcNAc(b1-3)Gal(b1-4)[Fuc(a1-3)]GlcNAc(b1-3)Gal(b1-4)[Fuc(a1-3)]GlcNAc
# Summary of the method: as §1
# [19] = target: Neu5Ac(a2-3)Gal(b1-4)[Fuc(a1-3)]GlcNAc(b1-3)GalNAc
# Summary of the method: as §1
# [20] = target: Neu5Ac(a2-3)Gal(b1-4)[Fuc(a1-3)]GlcNAc(b1-6)[Gal(b1-3)]GalNAc
# Summary of the method: as §1
# [21] = target: Neu5Ac(a2-3)Gal(b1-4)[Fuc(a1-3)]GlcNAc(b1-6)[Neu5Ac(a2-3)Gal(b1-3)]GalNAc
# Summary of the method: as §1
# [22] = target: Neu5Ac(a2-3)Gal(b1-4)[Fuc(a1-3)]GlcNAc6S
# Summary of the method: as §1
# [23] = target: Neu5Ac(a2-3)Gal6S(b1-4)GlcNAc
# Summary of the method: as §1
# [24] = target: Neu5Ac(a2-3)Gal6S(b1-4)[Fuc(a1-3)]GlcNAc
# Summary of the method: as §1
# Neu5Ac(a2-3)GalNAc = target: Neu5Ac(a2-3)GalNAc
# Summary of the method: as §1
# [25] = target: Neu5Ac(a2-3)GalNAc(b1-4)GlcNAc
# Summary of the method: as §1
# [26] = target: Neu5Ac(a2-3)[GalNAc(b1-4)]Gal(b1-4)Glc
# Summary of the method: as §1
# [27] = target: Neu5Ac(a2-3)[GalNAc(b1-4)]Gal(b1-4)GlcNAc
# Summary of the method: as §1
# [28] = target: Neu5Ac(a2-3)[GalNAc(b1-4)]Gal(b1-4)GlcNAc(b1-3)GalNAc
# Summary of the method: as §1
# [29] = target: Neu5Ac(a2-3)[Neu5Ac(a2-6)]GalNAc
# Summary of the method: as §1
# Neu5Ac(a2-6)Gal = target: Neu5Ac(a2-6)Gal
# Summary of the method: as §1
# [30] = target: Neu5Ac(a2-6)Gal(b1-3)GlcNAc(b1-3)[Gal(b1-4)GlcNAc(b1-6)]Gal(b1-4)Glc
# Summary of the method: as §1
# Neu5Ac(a2-6)Gal(b1-4)Glc = target: Neu5Ac(a2-6)Gal(b1-4)Glc
# Summary of the method: as §1
# [31] = target: Neu5Ac(a2-6)Gal(b1-4)GlcNAc
# Summary of the method: as §1
# [32] = target: Neu5Ac(a2-6)Gal(b1-4)GlcNAc(b1-2)Man
# Summary of the method: as §1
# [33] = target: Neu5Ac(a2-6)Gal(b1-4)GlcNAc(b1-2)Man(a1-3)Man(b1-4)GlcNAc(b1-4)GlcNAc
# Summary of the method: as §1
# [34] = target: Neu5Ac(a2-6)Gal(b1-4)GlcNAc(b1-2)Man(a1-3)[Gal(b1-4)GlcNAc(b1-2)Man(a1-6)]Man(b1-4)GlcNAc(b1-4)GlcNAc
# Summary of the method: as §1
# [35] = target: Neu5Ac(a2-6)Gal(b1-4)GlcNAc(b1-2)Man(a1-3)[GlcNAc(b1-2)Man(a1-6)]Man(b1-4)GlcNAc(b1-4)GlcNAc
# Summary of the method: as §1
binder,measurement,setting,value
"Gal-9-hFc (Mus musculus), O08573-2 (protein) MALFSAQSPYINPIIPFTGPIQGGLQEGLQVTLQGTTKSFAQRFVVNFQNSFNGNDIAFHFNPRFEEGGYVVCNTKQNGQWGPEERKMQMPFQKGMPFELCFLVQRSEFKVMVNKKFFVQYQHRVPYHLVDTIAVSGCLKLSFITFQTQNFRPAHQAPMAQTTIHMVHSTPGQMFSTPGIPPVVYPTPAYTIPFYTPIPNGLYPSKSIMISGNVLPDATRFHINLRCGGDIAFHLNPRFNENAVVRNTQINNSWGQEERSLLGRMPFSRGQSFSVWIICEGHCFKVAVNGQHMCEYYHRLKNLQDINTLEVAGDIQLTHVQT",glycan array binding signal (z-score),[1],0.149
same,glycan array binding signal (z-score),[2],-0.291
same,glycan array binding signal (z-score),[3],0.936
same,glycan array binding signal (z-score),[4],-0.347
same,glycan array binding signal (z-score),[5],-0.279
same,glycan array binding signal (z-score),[6],-0.139
same,glycan array binding signal (z-score),[7],-0.352
same,glycan array binding signal (z-score),[8],-0.113
same,glycan array binding signal (z-score),[9],-0.258
same,glycan array binding signal (z-score),[10],-0.354
same,glycan array binding signal (z-score),[11],0.436
same,glycan array binding signal (z-score),[12],-0.301
same,glycan array binding signal (z-score),[13],0.075
same,glycan array binding signal (z-score),[14],-0.627
same,glycan array binding signal (z-score),[15],-0.352
same,glycan array binding signal (z-score),[16],-0.599
same,glycan array binding signal (z-score),[17],-0.249
same,glycan array binding signal (z-score),[18],-0.565
same,glycan array binding signal (z-score),[19],0.22
same,glycan array binding signal (z-score),[20],0.102
same,glycan array binding signal (z-score),[21],0.233
same,glycan array binding signal (z-score),[22],-0.309
same,glycan array binding signal (z-score),[23],-0.251
same,glycan array binding signal (z-score),[24],0.075
same,glycan array binding signal (z-score),Neu5Ac(a2-3)GalNAc,-0.229
same,glycan array binding signal (z-score),[25],-0.356
same,glycan array binding signal (z-score),[26],-0.51
same,glycan array binding signal (z-score),[27],-0.526
same,glycan array binding signal (z-score),[28],-0.282
same,glycan array binding signal (z-score),[29],-0.344
same,glycan array binding signal (z-score),Neu5Ac(a2-6)Gal,-0.702
same,glycan array binding signal (z-score),[30],-0.655
same,glycan array binding signal (z-score),Neu5Ac(a2-6)Gal(b1-4)Glc,-0.373
same,glycan array binding signal (z-score),[31],-0.499
same,glycan array binding signal (z-score),[32],0.192
same,glycan array binding signal (z-score),[33],-0.184
same,glycan array binding signal (z-score),[34],0.818
same,glycan array binding signal (z-score),[35],-0.015
